Measured values as given in patent US20070161060A1 (published 2007).

Target: T1, His-PIPKIγ661 (mouse by paragraph 21, human by paragraph 73, UniProt O70161 1-661)
T1 construct: Recombinant, purified from E. coli; I took these to be the same pET28 product; also called recombinant T7-tagged PIPKIγ; nonphosphorylated PIPKIγ661; not shown: His tag / T7 tag of the pET28 vector
Experiment: GST pulldown
Method: To further analyze the association of PIPKIγ661 with the μ2-subunit of AP2, a GST pulldown approach was used. Since the full-length μ2-subunit is primarily insoluble in Escherichia coli, a truncation mutant was generated. This was accomplished by deleting of the bulk of the N-terminal domain and replacing it with GST. The resulting soluble construct contained the complete linker domain and the C-terminal domain. The GST pulldown was then performed by incubating PIPKIγ661 with GST-μ2 in the presence of glutathione conjugated SEPHAROSE™ beads.
Immunoprecipitation was performed according to standard methods (Ling, et al. (2002) supra). Briefly, cells were harvested and lysed in lysis buffer (50 mM Tris-HCl, pH 7.5, 150 mM NaCl, 0.2% NP-40, 2 mM Na₃VO₄, 1 mM EDTA, 1 mM PMSF, and 10% glycerol). Cell lysates were incubated with 50 μL of 1:1 diluted Protein A-SEPHAROSE and 2-5 μg of the appropriate antibodies at 4° C. for 4 hours to overnight. The immunocomplexes were separated by 7.5% to 10% SDS-PAGE, and analyzed as indicated. GST-tagged PIPKIα, PIPKIγ635, PIPKIγ661, His-tagged E-cadherin tail or HR-E-cadherin tail were expressed and purified from E. coli, and GST pull-down assays were performed according to well-established methods (Ling, et al. (2003) supra). […] The beads were washed with 1 ml buffer B four times, resolved by SDS-PAGE and analyzed via western blot. […]

binding result: no binding
B1: GST alone (other)
chain: not shown
